In PubChem BioAssay (NCATS):
Inconclusive results, whose numbers are uncertain, are shown with a selection of clear calls. For some of these results: No potency is given beside an inconclusive call; the fits are too rough. Active and inactive are the calls of the source. Unless noted, calls come from the whole dose curve; as a rule, active = well fitted curve in the direction sought with a large enough effect; inconclusive = small, poorly fitted or top-dose-only effect, or another doubt; inactive = no such curve, though single readings can be large; an effect the other way counts as inactive or inconclusive.

Experiments:
[1] = qHTS of pediatric cancer cell lines to identify multiple opportunities for drug repurposing: Primary screen for SK-N-MC cells (AID 1347093); settings: SK-N-MC viability, CellTiter-Glo luminescence, 48 h; activity change, negative = cytotoxic: at 46 µM (top of the series); note: potency is the fitted concentration of half-maximal effect;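 for activity change, negative = cytotoxic: plate controls were DMSO neutral control for no effect and bortezomib for full effect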
Procedure, shortened: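 Metabolically active cells were quantified by ATP-dependent luminescence (CellTiter-Glo, 15 min at room temperature) following 48 h treatment. Cells had been plated at 500-1,000 per well and settled for 5 h beforehand.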

[2] = qHTS of pediatric cancer cell lines to identify multiple opportunities for drug repurposing: Primary screen for Saos-2 cells (AID 1347097); settings: Saos-2 viability, CellTiter-Glo ATP luminescence, 48 h; activity change, negative = cytotoxic: at 46 µM (top of the series); note: nearly all actives have a fitted effect of over 40% in size; note: potency is the fitted concentration of half-maximal effect; for activity change, negative = cytotoxic: % is set by controls: 0 for no effect and ±100 for the full control effect
Procedure, shortened: (§1)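 Luminescence from CellTiter-Glo served as readout of metabolically active cells after 48 h compound exposure. Titrations: MIPE 11-point, from 0.78 nM; NPC 8-point, from 0.59 nM (final). Concentration-response curves came straight from the primary screen.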

[3] = target: Cytochrome P450 2D6 (Homo sapiens) (UniProt P10635); assay: Cytochrome P450 family 2 subfamily D member 6 (CYP2D6) small molecule antagonists: luciferase biochemical (cell-free) qHTS assay (AID 1645840; active = well fitted curve in the direction sought with a large enough effect in the repeat runs; inconclusive = weak or mixed curves; inactive = no such curve, though single readings can be large; an effect the other way counts as inactive or inconclusive; note: nearly all actives have a fitted effect of over 55% in size; note: potency is the fitted concentration of half-maximal effect)
Chain of UniProt P10635 (P10635 whole entry, looked up): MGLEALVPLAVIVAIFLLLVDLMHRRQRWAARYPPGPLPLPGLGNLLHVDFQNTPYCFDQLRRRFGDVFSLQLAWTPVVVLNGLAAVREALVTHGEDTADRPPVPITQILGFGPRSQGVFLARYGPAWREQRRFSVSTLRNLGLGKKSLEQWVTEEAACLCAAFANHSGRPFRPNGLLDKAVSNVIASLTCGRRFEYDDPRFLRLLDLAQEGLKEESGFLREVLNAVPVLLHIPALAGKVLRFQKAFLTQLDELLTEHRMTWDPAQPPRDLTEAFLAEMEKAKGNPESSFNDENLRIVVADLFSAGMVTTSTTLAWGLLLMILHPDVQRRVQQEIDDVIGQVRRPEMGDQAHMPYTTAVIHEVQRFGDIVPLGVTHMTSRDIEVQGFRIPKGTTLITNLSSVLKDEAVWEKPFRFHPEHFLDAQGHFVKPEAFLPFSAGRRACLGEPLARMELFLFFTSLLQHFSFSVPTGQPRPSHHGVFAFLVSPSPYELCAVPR
Procedure, shortened: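 P450-Glo CYP2D6 system: proluciferin substrate converted by enzyme to luciferin, read by luminescence proportional to activity. Enzyme-substrate mix with compound 10 min at room temperature, then NADPH regeneration 1 h before detection reagent.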

[4] = target: Cytochrome P450 2C9 (Homo sapiens) (UniProt P11712); assay: Cytochrome P450 family 2 subfamily C member 9 (CYP2C9) small molecule antagonists: luciferase biochemical (cell-free) qHTS assay (AID 1645842; active = well fitted curve in the direction sought with a large enough effect in the repeat runs; inconclusive = weak or mixed curves; inactive = no such curve, though single readings can be large; an effect the other way counts as inactive or inconclusive; note: nearly all actives have a fitted effect of over 55% in size; note: potency is the fitted concentration of half-maximal effect; for activity change, negative = inhibition: % is set by controls: 0 for no effect and ±100 for the full control effect)
Chain of UniProt P11712 (P11712 whole entry, looked up): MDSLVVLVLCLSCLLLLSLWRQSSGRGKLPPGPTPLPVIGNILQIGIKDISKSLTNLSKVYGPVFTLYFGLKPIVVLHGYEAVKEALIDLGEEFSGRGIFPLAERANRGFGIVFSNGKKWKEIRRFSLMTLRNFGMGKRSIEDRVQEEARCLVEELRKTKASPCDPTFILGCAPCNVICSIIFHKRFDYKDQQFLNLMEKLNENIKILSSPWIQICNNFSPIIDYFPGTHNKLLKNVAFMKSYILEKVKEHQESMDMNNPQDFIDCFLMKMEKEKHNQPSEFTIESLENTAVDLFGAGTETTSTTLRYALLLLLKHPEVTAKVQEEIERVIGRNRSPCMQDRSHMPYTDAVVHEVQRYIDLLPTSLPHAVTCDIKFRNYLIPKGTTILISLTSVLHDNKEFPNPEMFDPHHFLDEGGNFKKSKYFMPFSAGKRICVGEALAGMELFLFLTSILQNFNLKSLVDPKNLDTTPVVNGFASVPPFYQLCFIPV
Procedure, shortened: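 P450-Glo CYP2C9 system: proluciferin substrate with enzyme in mix containing 0.4% BSA, 10 min at room temperature, then NADPH regeneration solution added and incubated 1 h at 37C. Detection reagent stopped reaction; luminescence read after 20 min as RLU.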

[5] = Primary qHTS for inhibitors of nuclear receptor binding SET domain protein 2 (NSD2) in an RCH-ACV wild type WT cells (2C) (AID 1645877); settings: activity change, negative = cell killing: at 44.9 µM (top of the series) unless noted; note: nearly all actives have a fitted effect of over 70% in size; note: potency is the fitted concentration of half-maximal effect; for activity change, negative = cell killing: % is set by controls: 0 for no effect and ±100 for the full control effect
MKL-1 = assay: qHTS assay to identify novel small-molecules to repurpose for Merkel cell carcinoma treatment (AID 1296009); settings: MCC and control cell lines, CellTiter-Glo viability, 72 h; series mostly up to 46 µM; note: nearly all actives have a fitted effect of over 60% in size; note: potency is the fitted concentration of half-maximal effect; for activity change, negative = cytotoxicity: % is set by controls: 0 for no effect and ±100 for the full control effect
Procedure, shortened: (§2)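 Viability readout: ATP luminescence (CellTiter-Glo) after 72 hr drug exposure at 37 degree celsius. Dose-response format was 8 points for NPC and 11 points for MIPE; data normalized to in-plate controls.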

[6] = Drug repurposing screens with cells derived from glioblastoma tumor samples (AID 1345199); settings: GBM patient neurospheres viability, ATP luminescence, 48 h; Potency: tumour line A unless noted; activity, negative = cell killing: at 46 µM (top of the series), tumour line A unless noted; note: potency is the fitted concentration of half-maximal effect; nearly all actives have a fitted effect of over 40% in size
Procedure, shortened: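 Primary testing used CD133+ neurospheres from four GBM patients, seven concentrations, 48 h exposure and ATP-based viability; confirmation added three slower-growing patient lines.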

[7] = qHTS of pediatric cancer cell lines to identify multiple opportunities for drug repurposing: Primary screen for A673 cells (AID 1347092); settings: A673 Ewing sarcoma viability, CellTiter-Glo ATP luminescence, 48 h; activity change, negative = cytotoxic: at 46 µM (top of the series); note: % is set by controls: 0 for no effect and ±100 for the full control effect; nearly all actives have a fitted effect of over 45% in size
Procedure, shortened: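 A673 cells (500-1,000 cells/well in growth media) were pre-incubated 5 h at 37 degrees C, then exposed to compounds for 48 h. Viability was read as CellTiter-Glo luminescence; concentration-response curves came directly from the primary screen.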

[8] = qHTS of pediatric cancer cell lines to identify multiple opportunities for drug repurposing: Primary screen for NB-EBc1 cells (AID 1347095); note: potency is the fitted concentration of half-maximal effect;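 for activity change, negative = cytotoxic: plate controls were DMSO neutral control for no effect and bortezomib for full effect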
Procedure, shortened: as §1

[9] = qHTS of pediatric cancer cell lines to identify multiple opportunities for drug repurposing: Primary screen for SK-N-SH cells (AID 1347098); note: nearly all actives have a fitted effect of over 65% in size; note: potency is the fitted concentration of half-maximal effect
Procedure, shortened: (§3)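 Cells (500-1,000/well) rested 5 h, then received compounds for 48 h; metabolically active cells were measured by CellTiter-Glo luminescence. Final concentrations spanned up to 46 µM (MIPE, 11-point) or 0.59 nM-46 µM (NPC, 8-point) in primary screens, 11-point in follow-ups.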

[10] = Primary qHTS for inhibitors of nuclear receptor binding SET domain protein 2 (NSD2) in an isogenic RCH-ACV NSD2 p.E1099K mutant (9B) (AID 1645876); settings: activity change, negative = viability loss: at 44.9 µM (top of the series) unless noted; note: nearly all actives have a fitted effect of over 70% in size; note: potency is the fitted concentration of half-maximal effect
MKL-2 = assay: qHTS assay to identify novel small-molecules to repurpose for Merkel cell carcinoma treatment (AID 1296009); settings: MCC and control cell lines, CellTiter-Glo viability, 72 h; activity change, negative = cytotoxicity: at 46 µM (top of the series); note: nearly all actives have a fitted effect of over 60% in size; note: potency is the fitted concentration of half-maximal effect
Procedure, shortened: as §2

UISO = assay: as above; settings: MCC and control cell lines, CellTiter-Glo viability, 72 h; series mostly up to 46 µM
Procedure, shortened: as §2

WaGa = assay: as above; settings: MCC and control cell lines, CellTiter-Glo viability, 72 h; series mostly up to 46 µM
Procedure, shortened: as §2

SKOV3 = assay: Primary qHTS to identify gynecologic anti-cancer compounds using libraries of approved drugs and bioactive compounds (AID 1345084); settings: Gynecologic cancer cell panel viability, ATPlite luminescence, 48 h; series mostly up to 57.5 µM; note: nearly all actives have a fitted effect of over 55% in size; note: potency is the fitted concentration of half-maximal effect
Procedure, shortened: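 48 h compound exposure at 37 C, 5% CO2; five-point qHTS. ATPlite luminescence readout of cell ATP.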

[11] = qHTS of pediatric cancer cell lines to identify multiple opportunities for drug repurposing: Primary screen for OHS-50 cells (AID 1347103); settings: OHS-50 osteosarcoma viability, CellTiter-Glo luminescence, 48 h; activity change, negative = cytotoxic: at 57.3 µM (top of the series); note: nearly all actives have a fitted effect of over 40% in size; note: potency is the fitted concentration of half-maximal effect;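 for activity change, negative = cytotoxic: plate controls were DMSO neutral control for no effect and bortezomib positive control for full effect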
Procedure, shortened: as §3

[12] = Primary qHTS for small molecule stabilizers of the endoplasmic reticulum resident proteome: Secreted ER Calcium Modulated Protein (SERCaMP) assay (AID 1508630); settings: SH-SY5Y GLuc-SERCaMP (Gaussia luciferase released on ER calcium loss) secretion, thapsigargin, luminescence; activity change, negative = inhibition: at 38.4 µM (top of the series) unless noted; note: potency is the fitted concentration of half-maximal effect
Procedure, shortened: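 The SH-SY5Y reporter protocol was run at 3 concentrations up to 38.3 uM (primary) or 11 concentrations (follow-up): 16 h compound, 100 nM thapsigargin for 4 h, then extracellular luciferase luminescence.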

[13] = qHTS of pediatric cancer cell lines to identify multiple opportunities for drug repurposing: Primary screen for BT-12 cells (AID 1347101);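 note: plate controls were DMSO for no effect and bortezomib positive control for full effect; nearly all actives have a fitted effect of over 25% in size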
Procedure, shortened: as §3

[14] = A High-Content qHTS Against Drug Library for the Identification of Small Molecules that Inhibit DYT1 Early Onset Primary Dystonia-Associated Cell Pathology (AID 1645839; calls by dose curve)
Procedure, shortened: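 Induced EGFP-delE TorsinA cells are imaged after 48 h of compound treatment. Punctate fusion-protein distribution gives the %pathology value, while nuclei counts flag toxicity. Wild-type EGFP-hTOR1A cells define the normal pattern.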
Tags give direction and shape of the fitted curve.

O=C1NCC2(CCN(CCc3ccccc3)CC2)O1
Potency [1]: inactive | Potency [2]: inactive | Potency [3]: inconclusive [inhibitor, partial curve] | Potency [4]: inactive | Potency [5]: inactive | Potency (MKL-1): inactive | Potency [6]: inconclusive [inhibitor, partial curve]

CC1=C(CC(=O)O)c2cc(F)ccc2/C1=C\c1ccc(S(C)(=O)=O)cc1
Potency [7]: inactive | Potency [1]: inactive | Potency [8]: inactive | Potency [2]: inconclusive [cytotoxic, partial curve, poor fit] | Potency [9]: inconclusive [cytotoxic, full curve, poor fit] | Potency [4]: inconclusive [inhibitor, single point] | Potency [10]: inconclusive [inhibitor, single point] | Potency [5]: inconclusive [inhibitor, single point] | activity change, negative = cytotoxicity (MKL-2): inconclusive: -30.3% [inhibitor] | Potency (UISO): inconclusive [inhibitor, partial curve, poor fit] | Potency (WaGa): inconclusive [inhibitor, partial curve, poor fit] | Potency (SKOV3): inactive

CN(C)CCN(Cc1ccccc1)c1ccccn1
Potency [1]: inconclusive [cytotoxic, single point] | Potency [9]: inactive | Potency [11]: inconclusive [cytotoxic, partial curve] | Potency [10]: inconclusive [inhibitor, single point] | Potency [5]: inconclusive [inhibitor, partial curve] | Potency (MKL-2): inactive | Potency (UISO): inactive | Potency (SKOV3): inactive | Potency [6]: active: 5.62 µM

CN=C(N)NC(=O)Nc1c(C)cccc1C
Potency [12]: inactive | Potency (MKL-1): inactive

CC=CCC(C)C(O)C1C(=O)NC(CC)C(=O)N(C)CC(=O)N(C)C(CC(C)C)C(=O)NC(C(C)C)C(=O)N(C)C(CC(C)C)C(=O)NC(C)C(=O)NC(C)C(=O)N(C)C(CC(C)C)C(=O)N(C)C(CC(C)C)C(=O)N(C)C(C(C)C)C(=O)N1C (configuration not stated)
Potency (MKL-2): inconclusive [inhibitor, full curve] | Potency (UISO): inconclusive [inhibitor, partial curve, poor fit]

CC(C)(Oc1ccc(Cl)cc1)C(=O)OCCCOC(=O)C(C)(C)Oc1ccc(Cl)cc1
Potency [8]: inactive | Potency [13]: inactive | Potency (MKL-2): inconclusive [inhibitor, single point] | Potency (UISO): inactive

Nc1c(I)cc(I)c(C(=O)N(CCC(=O)O)c2ccccc2)c1I
Potency [4]: inconclusive [inhibitor, partial curve] | Potency [5]: inactive | Potency (MKL-1): inactive | Potency (SKOV3): inconclusive [rising, partial curve, poor fit]

CN1[C@@H]2CCC[C@@H]1CC(NC(=O)c1nn(C)c3ccccc13)C2 (some centres not stated)
Potency [7]: inactive | Potency [8]: inconclusive [cytotoxic, partial curve, poor fit] | Potency [9]: inconclusive [cytotoxic, single point] | Potency [13]: inactive | Potency (MKL-1): inactive | Potency [6]: active: 12.6 µM

O=C(O)c1ccccc1Nc1cc(Cl)ccc1C(=O)O
Potency [13]: inactive | Potency [11]: inactive | Potency [4]: inactive | Potency [5]: inconclusive [inhibitor, partial curve] | Potency (MKL-2): inconclusive [inhibitor, single point] | Potency (UISO): inconclusive [inhibitor, single point]

CCCCCCCC(=O)OCC(O)CO (configuration not stated)
Potency [9]: inactive | Potency [13]: inactive | Potency [14]: inactive | Potency [4]: inconclusive [inhibitor, single point] | Potency (MKL-2): inactive | Potency (WaGa): inactive

O=C1Cc2cc(Cl)ccc2N1
Potency [7]: inactive | Potency [11]: inactive | Potency [3]: inconclusive [inhibitor, partial curve] | Potency [10]: inactive | Potency (MKL-2): inconclusive [inhibitor, partial curve, poor fit] | Potency (UISO): inconclusive [inhibitor, full curve]

CCCCOC(=O)CCCCCCCCC(=O)OCCCC
Potency [12]: inconclusive [inhibitor, full curve, poor fit] | Potency [3]: inactive | Potency (MKL-1): inactive
